Hit rate of the full screen: of about 310,000 compounds, about 14,000 (4.5%) showed an effect of 50% or more. Effects have a minus sign here. The list shows a part of the results.
Biological target: human ether-à-go-go-related gene (hERG) potassium channel (human, UniProt Q12809)
Experiment: primary screen, population patch clamp on CHO cells stably expressing hERG
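Note: peak tail current of the secondary pulse compared with the same well before compound.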

Chain of human ether-à-go-go-related gene (hERG) potassium channel (Q12809 whole entry, looked up): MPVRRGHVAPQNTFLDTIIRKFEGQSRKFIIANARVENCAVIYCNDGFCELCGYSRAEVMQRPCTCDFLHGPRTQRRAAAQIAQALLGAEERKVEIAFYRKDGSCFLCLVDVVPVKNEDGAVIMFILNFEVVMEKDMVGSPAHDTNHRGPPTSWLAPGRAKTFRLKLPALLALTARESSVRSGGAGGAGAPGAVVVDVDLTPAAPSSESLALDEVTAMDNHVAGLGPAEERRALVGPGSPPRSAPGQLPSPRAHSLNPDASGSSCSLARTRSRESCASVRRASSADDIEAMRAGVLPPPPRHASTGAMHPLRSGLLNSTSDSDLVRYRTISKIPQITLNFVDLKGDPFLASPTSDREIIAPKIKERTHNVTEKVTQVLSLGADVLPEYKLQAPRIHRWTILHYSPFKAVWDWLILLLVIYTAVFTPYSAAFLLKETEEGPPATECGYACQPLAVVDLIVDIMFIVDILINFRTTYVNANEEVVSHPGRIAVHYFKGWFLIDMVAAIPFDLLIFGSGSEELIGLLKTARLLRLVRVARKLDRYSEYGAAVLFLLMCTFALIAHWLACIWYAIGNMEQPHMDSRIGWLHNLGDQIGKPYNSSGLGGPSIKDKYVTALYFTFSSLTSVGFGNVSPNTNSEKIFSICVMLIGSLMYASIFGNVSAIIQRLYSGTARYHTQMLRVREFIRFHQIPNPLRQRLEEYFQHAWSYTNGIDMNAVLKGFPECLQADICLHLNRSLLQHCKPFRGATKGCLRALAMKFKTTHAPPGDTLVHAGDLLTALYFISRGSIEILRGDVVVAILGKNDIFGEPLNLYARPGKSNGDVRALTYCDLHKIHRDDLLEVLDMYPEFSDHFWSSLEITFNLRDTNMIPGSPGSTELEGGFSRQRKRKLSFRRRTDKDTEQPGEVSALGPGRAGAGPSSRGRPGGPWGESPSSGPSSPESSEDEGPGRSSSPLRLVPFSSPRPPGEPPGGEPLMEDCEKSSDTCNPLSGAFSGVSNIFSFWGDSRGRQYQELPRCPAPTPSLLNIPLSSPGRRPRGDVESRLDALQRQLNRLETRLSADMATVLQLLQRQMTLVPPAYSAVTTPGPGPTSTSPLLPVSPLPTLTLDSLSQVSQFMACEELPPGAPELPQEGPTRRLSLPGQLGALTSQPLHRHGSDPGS

| SMILES | hERG current change (%, negative = inhibition) at 10uM |
| --- | --- |
| CCN(CC)CCSc1nnc2c3ccccc3n(Cc3ccccc3)c2n1 | -75.4% |
| Cc1onc(-c2c(Cl)cccc2Cl)c1C(=O)N=C(N)N1CCOCC1 | 2.58% |
| COc1ccc(/C=N/Nc2cc(C)nc(N)n2)cc1 | -32.1% |
| CC(=O)C1=C(C)Nc2ncnn2C1c1ccccc1Cl (stereo not drawn) | -7.14% |
| COc1ccc(OC)c(/C=C(\C)C(=O)c2c(C)cc(C)[nH]c2=O)c1 | 7.34% |
| CS(=O)(=O)Nc1ccc(C(=O)Nc2ccc3c(c2)OCCO3)cc1 | 3.97% |
| C/C=C/C=C/C(=O)N1CC2(CC(c3cccc(NC(=O)/C=C/C)c3)=NO2)C[C@@H]1C(N)=O (stereo partly drawn) | 2.75% |
| Cc1cccc(NC(=O)c2cccs2)n1 | 9.15% |
| CCCc1ccc(OCc2ccc(C(=O)N/N=C/c3cccc([N+](=O)[O-])c3)o2)c(OC)c1 | 5.51% |
| COc1ccc(N(C(C)=O)S(=O)(=O)c2cc(OC)ccc2OC)cc1 | -7.46% |
| COc1ccc([N+](=O)[O-])cc1NC(=O)CSc1ccccc1 | -13.8% |
| COc1cccc(NC(=S)NC(C)c2ccc(OC)c(OC)c2)c1 (stereo not drawn) | -4.17% |
| CCOc1ccc2c(c1)[N+](C)(C)C(C)(C)C=C2C.[I-] | 9.24% |
| NC(=O)c1c(NC(=O)c2ccc(S(=O)(=O)N3CCOCC3)cc2)sc2c1CCCCC2 | -4.43% |
| CCOC(=O)c1ccc(S(=O)(=O)N2CCN(CC3CC=CCC3)CC2)cc1.O=C(O)C(=O)O (stereo not drawn) | -3.89% |
| Oc1ccccc1/C=N/NC(=S)NC1CC2C=CC1C2 (stereo not drawn) | 4% |
| O=C(Cn1nnc(-c2ccccc2)n1)NCc1ccccc1 | -9.05% |
| Cc1cccc(C(=O)n2c(=S)nc3cc(C)ccn32)c1 | 19.5% |
| COc1ccc(C(=O)NCC(=O)N/N=C/c2cccnc2)cc1 | 18.1% |
| CCOc1ccc(Br)cc1S(=O)(=O)N1CC(C)OC(C)C1 (stereo not drawn) | -37.4% |
| Cc1ccc(/C(N)=N/OC(=O)CSc2ccccc2)cc1 | -5.49% |
| CCN(CC)S(=O)(=O)c1ccc(NC(=O)[C@@H](NC(=O)c2cc(OC)cc(OC)c2)C(C)C)cc1 | 7.73% |

| SMILES | hERG current change (%, negative = inhibition) at 10uM |
| --- | --- |
| Cc1ccc(OCC(=O)Nc2ccccc2-c2ccccc2NC(=O)COc2ccc(C)cc2)cc1 | 3.47% |
| O=C1CC(NCCC2=CCCCC2)C(=O)N1c1cccc(Cl)c1Cl (stereo not drawn) | 4.74% |
| COC(=O)CSc1ccccc1C(=O)OC | 10% |
| CC1(C)C2CC[C@]3(C)C(CC=C4[C@@H]5C[C@@](C)(CO)[C@@H](O)C[C@]56C[C@@H](OC6=O)[C@]43C)[C@@]2(C)CC[C@@H]1O (stereo partly drawn) | 18.8% |
| CCN(CC)S(=O)(=O)c1ccc(C(=O)NCCOC(=O)c2ccc(F)cc2F)cc1 | -47.1% |
| CCCn1c(N)c(N(CCOC)C(=O)CSCC(=O)Nc2cccc(C)c2)c(=O)[nH]c1=O | 1.73% |
| CC(=O)Nc1ccc(NC(=O)CSc2nnc3c4ccccc4n(C)c3n2)cc1 | 4.16% |
| CCOc1ccc(NC(=O)CN2CCN(CC(=O)Nc3ccccc3OC)CC2)cc1 | -74.1% |
| O=C(Cn1c(/C=C/c2ccccc2)nc2ccccc21)Nc1ccc(F)cc1 | 6.64% |
| CN(C(=O)CCc1nc2ccccc2c(=O)[nH]1)C1CCS(=O)(=O)C1 (stereo not drawn) | 5.61% |
| CCCOc1cccc(C(=O)Nc2ccc(CN3CCOCC3)cc2)c1 | -20% |
| O=C(c1ccco1)N1CCN(c2cccc(Cl)c2)CC1 | -11.5% |
| O=C(CSc1n[nH]c(-c2ccccc2)n1)Nc1ccc(F)cc1F | 1.49% |
| CCCOC(=O)C(C)Sc1n[nH]c(=O)[nH]c1=O (stereo not drawn) | -6.87% |
| Cc1ccc2c(c1)N(S(=O)(=O)c1ccc(CN3C(=O)c4cccnc4C3=O)s1)CCO2 | -3.67% |
| O=C(CN1C(=O)NC2(CCCC2)C1=O)NCCc1ccc(Cl)cc1Cl | -8.31% |
| Cc1[nH]c2ccccc2c1/C=N/Nc1ccc(F)cc1F | 10.4% |
| COCCCNC(=O)CC1C(=O)N(Cc2ccccc2)C(C)c2nc3ccccc3n21 (stereo not drawn) | 5.91% |
| COc1ccc(NC(=O)C2OC3OC(C)(C)OC3C3OC(C)(C)OC23)cc1 (stereo not drawn) | 1.05% |
| COc1ccc(-c2cc(C(=O)OCC(=O)N(C)C3CCS(=O)(=O)C3)c3ccccc3n2)cc1OC (stereo not drawn) | -10% |
| O=C(COc1ccccc1)NCCn1ccc2ccccc21 | -6.77% |
| COc1cc(OC)cc(C(=O)Nc2cccc(C(C)=O)c2)c1 | 5.58% |

| SMILES | hERG current change (%, negative = inhibition) at 10uM |
| --- | --- |
| COc1cc(C2N(C)CCC3(OCCO3)C2(C)C)cc(OC)c1OC (stereo not drawn) | -23.9% |
| CN(C)c1cccc(C(=O)N2CCCC(CCC(=O)N3CCN(c4ccccn4)CC3)C2)c1 (stereo not drawn) | -0.816% |
| CCn1c(O)c(C=Nc2ccccc2)oc1=S | -2.84% |
| O=[N+]([O-])c1cccn2cc(-c3ccc(Br)cc3)nc12 | -2.94% |
| Cc1cc(C(=O)N2CCCC(N3CCN(c4ccc(F)cc4)CC3)C2)no1 (stereo not drawn) | -37.7% |
| Cc1cc2cc3c(cc2nc1SCc1ccc(C(=O)O)cc1)OCCO3 | 11.5% |
| C/[N+]([O-])=C\C1C(=O)CCCC1=O | 16.1% |
| CCCCc1ccc(NC(=O)CC(C)(C)C)cc1 | -9.28% |
| COc1cccc(CNC(=O)c2ccc(COc3ccccc3)cc2)c1 | 24% |
| Cc1cc(OC(C)C)nc(NCc2ccccc2)n1 | -3.54% |
| COc1ccc(-c2nn(-c3ccccc3)cc2/C=N/N2C(=O)CSC2=S)cc1 | -6.34% |
| O=C(CCl)N1c2ccccc2SCC1c1ccccc1 (stereo not drawn) | 30.7% |
| Cc1cccc(-c2nc3c(c(SCC(=O)N4CCOCC4)n2)CCCC3)c1 | 8.13% |
| O=C(O)C(=O)O.OC(COCc1ccco1)CN1CCN(c2ccccc2)CC1 (stereo not drawn) | -24.8% |
| CC(=O)NC1=NN(C(C)=O)C(C)(c2ccc(Br)cc2)S1 (stereo not drawn) | -4.33% |
| CC1(C)CC(=O)c2cc(O)ccc2O1 | 2.76% |
| CCN(CC(=O)Nc1ccc(NC(C)=O)cc1)C(=O)c1cccc(Oc2ccccc2)c1 | -1.76% |
| O=C(CCc1nc2ccccc2[nH]1)Nc1ccc2c(c1)OCCO2 | 5.35% |
| COC(=O)C1=C(c2cccc(C#N)c2)C[C@@H]2CC[C@H]1N2C(=O)N1CCCCC1 | -5.23% |
| O=C(CSc1nnc(CNc2ccc(F)cc2)o1)c1ccccc1 | 2.6% |
| COc1ccc(C2c3ccc4ccccc4c3Oc3ncn(CCN(C)C)c(=N)c32)cc1 (stereo not drawn) | -77.2% |
| O=S(=O)(c1ccccc1)N(CC(O)COc1ccccc1)c1ccccc1 (stereo not drawn) | -26.6% |

| SMILES | hERG current change (%, negative = inhibition) at 10uM |
| --- | --- |
| N#Cc1c(NC(=O)CN2C(=O)c3ccccc3C2=O)oc(-c2ccccc2)c1-c1ccccc1 | -19.4% |
| COc1ccc(-c2c(NC(=O)CC(C)C)n(C)c3ccccc3c2=O)cc1OC | 36.2% |
| Cc1onc(-c2ccccc2)c1-c1ccnn1C(=O)NC(C)C | -4.87% |
| O=C(CCC(=O)N(CC(=O)NC1CCCC1)Cc1cccs1)Nc1nccs1 | -11.1% |
| Cc1ccc(NC(=S)N2CCCC2)cc1 | -6.49% |
| CC(C)OCCCNc1nc2c([nH]1)c(=O)n(C)c(=O)n2C | -1.72% |
| COC(=O)c1cc(C(=O)N(Cc2ccccc2)c2ccccn2)cc([N+](=O)[O-])c1 | -22.4% |
| COCCN(C(=O)Cn1nnc2ccccc21)C(C(=O)NC1CCCCC1)c1ccc(OC)cc1OC (stereo not drawn) | -15% |
| CC(=O)c1ccc(NC(=O)c2cc(S(=O)(=O)N3CCOCC3)ccc2C)cc1 | -1.4% |
| CC1=C(C(=O)NCc2ccco2)C2(CCC(C)CC2)OC1=O (stereo not drawn) | 7.32% |
| Cc1ccccc1NS(=O)(=O)c1ccc(C2CNC(=O)C2)cc1 (stereo not drawn) | 8.49% |
| Cc1ccccc1NC(c1cccc(Cl)c1)c1nnnn1C1CCCCC1 (stereo not drawn) | 3.74% |
| O=C(CNC(=O)c1cc2c(n(-c3ccccc3)c1=O)CCCC2=O)c1ccccc1 | -38.5% |
| Cc1ccc2ccccc2c1Cn1c(-n2ccnc2)nc2c1c(=O)n(C)c(=O)n2C | -0.304% |
| O=S(=O)(Nc1ccc(O)c2ccccc12)c1ccc(Br)cc1 | -0.608% |
| CC1=C(C(=O)Nc2ccccc2C(=O)NC2CCC(C)CC2)SCCO1 (stereo not drawn) | 14.4% |
| CC1=NN(C(=O)c2ccc(Cn3cc([N+](=O)[O-])cn3)cc2)C(O)(C(F)(F)F)C1 (stereo not drawn) | -21.1% |
| CC[C@H](CO)NCCN[C@H](CC)CO.Cl | 10.7% |
| CN(CC(=O)Nc1cccc(F)c1)C(=O)Cc1n[nH]c(=O)c2ccccc12 | 5.31% |
| CCO/C([O-])=N/c1sn[n+](C)c1C | 18% |
| Cc1c(O)c(CN2CCCCC2)cc2c3c(c(=O)oc12)CCC3 | -11.5% |
